Two molecules from paper PMC6255862, “A quaternary tetramer assembly inhibits the deubiquitinating activity of USP25” (Nature Communications, 2018) can be followed below.

Protein sequences, listed by entry. Tags and fused reporters are not part of them. Lines headed by an entry give the natural chain unless they say otherwise; changes in a name come on top. Chains listed by the source or under a name are the forms on record and can include a tag or linker. Residues count along the entry.
UniProt Q9UHP3: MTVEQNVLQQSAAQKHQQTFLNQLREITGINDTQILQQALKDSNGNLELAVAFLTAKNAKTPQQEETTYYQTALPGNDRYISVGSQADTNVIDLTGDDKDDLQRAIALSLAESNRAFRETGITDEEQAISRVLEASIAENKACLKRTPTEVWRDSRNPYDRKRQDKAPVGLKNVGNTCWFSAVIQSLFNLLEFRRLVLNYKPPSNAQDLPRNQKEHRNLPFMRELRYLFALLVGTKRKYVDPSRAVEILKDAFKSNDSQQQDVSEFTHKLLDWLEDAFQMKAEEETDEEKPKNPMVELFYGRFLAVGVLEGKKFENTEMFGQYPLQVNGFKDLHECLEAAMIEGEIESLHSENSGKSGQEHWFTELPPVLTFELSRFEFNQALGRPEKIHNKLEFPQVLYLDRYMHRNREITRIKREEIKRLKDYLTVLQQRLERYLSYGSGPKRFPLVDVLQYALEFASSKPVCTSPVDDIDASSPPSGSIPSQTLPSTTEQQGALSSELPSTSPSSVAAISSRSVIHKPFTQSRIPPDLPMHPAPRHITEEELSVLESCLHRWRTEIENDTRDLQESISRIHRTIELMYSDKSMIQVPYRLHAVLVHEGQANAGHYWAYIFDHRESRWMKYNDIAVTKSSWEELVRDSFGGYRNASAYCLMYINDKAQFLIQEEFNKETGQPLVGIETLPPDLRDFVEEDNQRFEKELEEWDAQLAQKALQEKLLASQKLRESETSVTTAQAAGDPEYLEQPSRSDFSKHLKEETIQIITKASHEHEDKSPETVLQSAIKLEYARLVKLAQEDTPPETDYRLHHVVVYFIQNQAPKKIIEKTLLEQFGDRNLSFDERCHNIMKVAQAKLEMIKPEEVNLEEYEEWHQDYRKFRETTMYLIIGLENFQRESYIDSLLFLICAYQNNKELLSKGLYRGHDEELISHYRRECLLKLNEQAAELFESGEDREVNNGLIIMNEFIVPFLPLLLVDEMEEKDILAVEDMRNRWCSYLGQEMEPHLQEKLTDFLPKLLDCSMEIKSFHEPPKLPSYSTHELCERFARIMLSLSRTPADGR
Flag-USP25NCD: residues 18-714 of Q9UHP3
Flag-USP25FL ΔIL (Q9UHP3, form named): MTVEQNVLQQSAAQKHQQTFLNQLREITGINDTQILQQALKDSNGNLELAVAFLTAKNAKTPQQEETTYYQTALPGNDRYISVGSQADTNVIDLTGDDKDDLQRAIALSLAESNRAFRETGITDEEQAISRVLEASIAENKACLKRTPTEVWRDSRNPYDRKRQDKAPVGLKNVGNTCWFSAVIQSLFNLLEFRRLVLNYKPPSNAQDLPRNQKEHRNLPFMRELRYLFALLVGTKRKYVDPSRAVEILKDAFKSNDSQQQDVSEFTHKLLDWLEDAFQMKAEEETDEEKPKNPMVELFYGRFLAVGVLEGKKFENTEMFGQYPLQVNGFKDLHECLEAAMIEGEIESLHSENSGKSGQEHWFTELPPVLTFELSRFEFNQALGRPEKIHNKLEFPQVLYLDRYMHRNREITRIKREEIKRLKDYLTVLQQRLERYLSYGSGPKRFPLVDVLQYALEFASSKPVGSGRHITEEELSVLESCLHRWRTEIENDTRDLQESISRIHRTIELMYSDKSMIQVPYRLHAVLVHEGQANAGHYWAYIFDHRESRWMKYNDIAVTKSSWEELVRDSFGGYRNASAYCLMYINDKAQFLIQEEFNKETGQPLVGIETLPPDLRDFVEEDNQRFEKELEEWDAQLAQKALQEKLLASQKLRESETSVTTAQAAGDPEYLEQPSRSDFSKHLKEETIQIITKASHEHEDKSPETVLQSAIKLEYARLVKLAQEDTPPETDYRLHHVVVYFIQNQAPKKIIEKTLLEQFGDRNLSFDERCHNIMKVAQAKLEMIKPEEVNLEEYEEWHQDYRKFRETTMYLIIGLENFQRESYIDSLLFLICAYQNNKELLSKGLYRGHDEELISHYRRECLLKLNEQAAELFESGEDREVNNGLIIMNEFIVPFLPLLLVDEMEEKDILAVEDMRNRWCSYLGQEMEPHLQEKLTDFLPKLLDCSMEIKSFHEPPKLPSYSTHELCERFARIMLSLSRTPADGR
Flag-USP25NCD ΔIL (Q9UHP3, form named): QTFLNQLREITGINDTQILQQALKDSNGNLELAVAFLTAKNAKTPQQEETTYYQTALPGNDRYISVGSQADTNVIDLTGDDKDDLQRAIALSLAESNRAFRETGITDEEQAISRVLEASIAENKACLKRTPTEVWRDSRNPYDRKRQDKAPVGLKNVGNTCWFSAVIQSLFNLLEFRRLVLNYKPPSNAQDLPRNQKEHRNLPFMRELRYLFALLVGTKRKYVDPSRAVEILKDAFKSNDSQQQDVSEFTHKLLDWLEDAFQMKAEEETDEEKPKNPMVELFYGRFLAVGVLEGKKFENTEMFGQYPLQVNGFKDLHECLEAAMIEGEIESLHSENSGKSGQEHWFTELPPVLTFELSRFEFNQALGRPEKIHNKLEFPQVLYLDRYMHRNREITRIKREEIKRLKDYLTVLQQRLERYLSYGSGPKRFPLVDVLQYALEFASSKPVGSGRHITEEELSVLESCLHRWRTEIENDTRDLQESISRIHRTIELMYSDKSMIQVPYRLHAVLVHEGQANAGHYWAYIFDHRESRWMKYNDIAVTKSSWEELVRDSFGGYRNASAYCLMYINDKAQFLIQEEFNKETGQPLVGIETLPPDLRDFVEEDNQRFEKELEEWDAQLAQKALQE
UniProt O95271: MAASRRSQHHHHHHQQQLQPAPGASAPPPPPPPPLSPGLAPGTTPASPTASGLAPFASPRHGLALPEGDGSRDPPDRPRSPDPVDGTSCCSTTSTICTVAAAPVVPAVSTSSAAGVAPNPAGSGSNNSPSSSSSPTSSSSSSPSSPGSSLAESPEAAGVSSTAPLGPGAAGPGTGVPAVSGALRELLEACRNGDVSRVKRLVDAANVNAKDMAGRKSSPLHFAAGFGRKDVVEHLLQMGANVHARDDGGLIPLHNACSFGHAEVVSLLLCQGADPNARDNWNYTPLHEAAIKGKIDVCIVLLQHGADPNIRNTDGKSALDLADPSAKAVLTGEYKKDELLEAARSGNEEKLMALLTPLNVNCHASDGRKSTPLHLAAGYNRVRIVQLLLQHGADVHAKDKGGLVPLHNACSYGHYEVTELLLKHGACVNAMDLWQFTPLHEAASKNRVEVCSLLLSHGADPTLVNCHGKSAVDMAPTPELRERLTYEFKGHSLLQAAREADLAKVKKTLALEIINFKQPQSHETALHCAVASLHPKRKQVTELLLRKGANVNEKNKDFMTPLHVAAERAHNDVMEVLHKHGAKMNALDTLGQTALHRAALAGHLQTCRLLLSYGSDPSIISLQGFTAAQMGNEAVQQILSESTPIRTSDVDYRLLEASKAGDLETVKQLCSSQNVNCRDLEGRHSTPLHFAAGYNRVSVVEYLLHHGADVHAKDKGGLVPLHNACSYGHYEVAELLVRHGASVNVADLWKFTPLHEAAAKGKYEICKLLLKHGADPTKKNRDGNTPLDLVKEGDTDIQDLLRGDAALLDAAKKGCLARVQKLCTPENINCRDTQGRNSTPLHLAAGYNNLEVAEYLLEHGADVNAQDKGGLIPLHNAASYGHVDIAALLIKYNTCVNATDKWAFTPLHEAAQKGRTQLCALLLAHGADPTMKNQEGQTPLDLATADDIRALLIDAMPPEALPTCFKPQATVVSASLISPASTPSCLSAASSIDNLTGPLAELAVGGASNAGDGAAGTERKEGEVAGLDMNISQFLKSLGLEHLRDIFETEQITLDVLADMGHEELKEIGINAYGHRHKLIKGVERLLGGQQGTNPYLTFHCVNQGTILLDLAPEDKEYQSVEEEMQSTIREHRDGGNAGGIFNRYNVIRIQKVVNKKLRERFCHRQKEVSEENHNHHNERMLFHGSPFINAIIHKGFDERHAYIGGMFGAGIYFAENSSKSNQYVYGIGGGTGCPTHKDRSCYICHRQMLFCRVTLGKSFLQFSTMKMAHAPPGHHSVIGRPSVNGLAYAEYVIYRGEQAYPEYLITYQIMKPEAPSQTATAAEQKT

No constants are given. Whether binding was seen depends on the method and setting. Binding seen in cells or lysates may run through a third protein. Some binding calls cover weakened binding; strength is not graded here.

Targets include Flag-USP25FL ΔIL (human) (UniProt Q9UHP3); Flag-USP25NCD (human) (UniProt Q9UHP3); Flag-USP25FL (human) (UniProt Q9UHP3).
Holding throughout (assay): co-IP; anti-Flag M2 affinity gel on 5 mg of extract of transfected HEK293T cells in Triton lysis buffer, overnight at 4 °C; western blot with anti-Flag and anti-TNKS1/2
A general note: In western blotting, separated proteins are transferred to a membrane and probed.

In assay [1] the target is Flag-USP25NCD ΔIL (human) (UniProt Q9UHP3).

Regarding “tankyrase 1 (endogenous) (from UniProt O95271 1-1327)”, the binding result in the assay with Flag-USP25FL ΔIL (human) is on record as “binds”; in the assay with Flag-USP25NCD (human), “no binding”; in assay [1], “no binding”; with Flag-USP25FL (human), “binds”.

B1: tankyrase 2 (endogenous) (protein, UniProt Q9H2K2 1-1166)
chain: MSGRRCAGGGAACASAAAEAVEPAARELFEACRNGDVERVKRLVTPEKVNSRDTAGRKSTPLHFAAGFGRKDVVEYLLQNGANVQARDDGGLIPLHNACSFGHAEVVNLLLRHGADPNARDNWNYTPLHEAAIKGKIDVCIVLLQHGAEPTIRNTDGRTALDLADPSAKAVLTGEYKKDELLESARSGNEEKMMALLTPLNVNCHASDGRKSTPLHLAAGYNRVKIVQLLLQHGADVHAKDKGDLVPLHNACSYGHYEVTELLVKHGACVNAMDLWQFTPLHEAASKNRVEVCSLLLSYGADPTLLNCHNKSAIDLAPTPQLKERLAYEFKGHSLLQAAREADVTRIKKHLSLEMVNFKHPQTHETALHCAAASPYPKRKQICELLLRKGANINEKTKEFLTPLHVASEKAHNDVVEVVVKHEAKVNALDNLGQTSLHRAAYCGHLQTCRLLLSYGCDPNIISLQGFTALQMGNENVQQLLQEGISLGNSEADRQLLEAAKAGDVETVKKLCTVQSVNCRDIEGRQSTPLHFAAGYNRVSVVEYLLQHGADVHAKDKGGLVPLHNACSYGHYEVAELLVKHGAVVNVADLWKFTPLHEAAAKGKYEICKLLLQHGADPTKKNRDGNTPLDLVKDGDTDIQDLLRGDAALLDAAKKGCLARVKKLSSPDNVNCRDTQGRHSTPLHLAAGYNNLEVAEYLLQHGADVNAQDKGGLIPLHNAASYGHVDVAALLIKYNACVNATDKWAFTPLHEAAQKGRTQLCALLLAHGADPTLKNQEGQTPLDLVSADDVSALLTAAMPPSALPSCYKPQVLNGVRSPGATADALSSGPSSPSSLSAASSLDNLSGSFSELSSVVSSSGTEGASSLEKKEVPGVDFSITQFVRNLGLEHLMDIFEREQITLDVLVEMGHKELKEIGINAYGHRHKLIKGVERLISGQQGLNPYLTLNTSGSGTILIDLSPDDKEFQSVEEEMQSTVREHRDGGHAGGIFNRYNILKIQKVCNKKLWERYTHRRKEVSEENHNHANERMLFHGSPFVNAIIHKGFDERHAYIGGMFGAGIYFAENSSKSNQYVYGIGGGTGCPVHKDRSCYICHRQLLFCRVTLGKSFLQFSAMKMAHSPPGHHSVTGRPSVNGLALAEYVIYRGEQAYPEYLITYQIMRPEGMVDG
For B1, the binding result is given as “binds” with Flag-USP25FL ΔIL (human), “no binding” with Flag-USP25NCD (human), “no binding” in assay [1] and “binds” with Flag-USP25FL (human).
